# Out of some 340,000 compounds screened, about 170 (0.05%) were called active. About 26% were inconclusive and are not listed. Calls follow the shape of the dose curve; as a rule, active = well fitted inhibition curve with a large enough effect in the signal ratio, with a control signal flat (not every such curve was filed as active); inconclusive = small, poorly fitted or top-dose-only effect, or effect the other way, or a change in a side signal; inactive = flat fitted curve, though single readings scatter; the % refers to the signal ratio. The list shows a part of the results, in another mix than the full data.
# Assay: qHTS Assay to Find Inhibitors of Chronic Active B-Cell Receptor Signaling;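 as to activity change, negative = inhibition: plate controls were basal doxycycline-induced cells for no effect and cells given 10 µM MG132 for full effect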
# Conditions: ABC-DLBCL IkBa-CBG/CBR reporter, luminescence ratio (green luciferase fused to IkBa over red control in TMD8 lymphoma cells), 4 h; series mostly up to 46.1 µM; activity change, negative = inhibition: at the top concentration
# How it was run: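 TMD8 human ABC-DLBCL cells with doxycycline-inducible IκBα–green luciferase fusion and unfused red luciferase, in 0.5% FBS medium; compounds up to 46 uM, 4 h at 37C. Green/red luminescence ratio, filter-overlap corrected, fitted to concentration-response curves.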
# Potency is read from the fitted curve at half-maximal effect.
Compound,"activity change, negative = inhibition",Potency
C=CC[C@H](CC(=O)N(CCO)Cc1ccccc1)C(=O)NCCOC(=O)[C@@H](CC=C)CC(=O)OC(C)(C)C,inactive: 2.24%,
COc1ccc(NC(=O)CN2C(=O)CSc3ccc(S(=O)(=O)N4CCCC4)cc32)cc1OC,inactive: -0.204%,
OCC[C@H]1C[C@H](O)[C@@H](O)[C@]2(OCc3ccccc32)O1,inactive: -1.43%,
CC(=O)Nc1ccc(S(=O)(=O)NCCS(=O)(=O)N2CCN(c3ccccc3F)CC2)cc1,inactive: -3.36%,
N#C/C(=C\c1cccc(NC(=O)c2ccccc2Cl)c1)C(=O)NCCc1ccccc1,,active: 20.6 µM
CCc1ccc(/C=C2/SC(=S)N(CCC(=O)NCCCN3CCOCC3)C2=O)cc1,inactive: -5.1%,
CC(C)(C)OC(=O)C[C@H]1C/C=C\C[C@@H](CC(=O)N(CCO)Cc2ccccc2)C(=O)NC[C@@H](c2ccccc2)OC1=O,inactive: -1.02%,
CC1CCCCN1Cc1c(O)ccc2c(=O)c(-c3ccc(Cl)cc3)coc12 (centres undefined),inactive: 4.75%,
COc1ccc(/C=C2/SC(=O)N(CC(=O)NCCC(C)C)C2=O)cc1OC,inactive: -9.75%,
C[C@@H]1COC(=O)[C@@H](CC(=O)OC(C)(C)C)C/C=C\C[C@@H](CC(=O)NCCO)C(=O)N1,inactive: -0.142%,
Cc1ccc(S(=O)(=O)/N=C2/NC(=O)/C(=C\c3ccccc3)S2)cc1,inactive: -1.19%,
C=CCNC(=S)NNC(=O)COc1cccc(Cl)c1,,active: 17.8 µM
C[C@@H]1O[C@@H](Oc2c(-c3cc(O)c(O)c(O)c3)oc3cc(O)cc(O)c3c2=O)[C@H](O)[C@H](O)[C@H]1O,inactive: -1.41%,
COc1cc2cc(C(=O)N3CCOCC3)cc(-c3ccc(C)cc3)c2cc1OC,,active: 15.8 µM
OCC[C@@H]1C[C@H](O)[C@@H](O)[C@@]2(CCc3ccccc3CO2)O1,inactive: -0.223%,
CC(C)[C@H](NC(=O)N1c2ccccc2NC(=O)[C@@H]1C(C)C)C(=O)N[C@@H](Cc1ccccc1)C(=O)O,inactive: -12.9%,
OCC[C@@H]1C[C@@H](O)[C@H](O)[C@@]2(CCc3ccccc3CO2)O1,inactive: -6.34%,
CS(=O)(=O)c1ccccc1-c1csc(N2CCC(C(N)=O)CC2)n1,inactive: 5.37%,
OCc1ccnc2c(O)cccc12,,active: 6.31 µM
O=S(=O)(c1ccc2c(c1)OCCO2)C1CCC(S(=O)(=O)c2c(F)cccc2F)CC1 (centres undefined),inactive: 0.317%,
C[C@@H]1C[C@H]2[C@@H]3CCC4=CC(=O)C=C[C@]4(C)[C@@]3(F)[C@@H](O)C[C@]2(C)[C@@]1(O)C(=O)CO,inactive: -3.15%,
C[C@@H]1CC[C@@]2(O[C@H](CCO)C[C@@H](O)[C@@H]2O)O1,inactive: -0.374%,
COc1cccc(OCC(O)CN2CCN(c3ccccc3)CC2)c1 (centres undefined),inactive: -1.9%,

Compound,"activity change, negative = inhibition",Potency
COc1ccc(/C=C2/SC(c3ccc(C)cc3)=NC2=O)cc1OC,inactive: -4.4%,
CC1=NN(Cc2ccccc2)C(=O)C1C(c1ccc(Cl)cc1)C(C#N)C#N (centres undefined),,active: 20.6 µM
C=CC[C@@H](CC(=O)OC(C)(C)C)C(=O)OC[C@@H]1CCCN1C(=O)[C@H](CC=C)CC(=O)NCCO,inactive: 5.57%,
O=C(Nc1cccc(F)c1)/C(=C\c1ccco1)NC(=O)c1ccco1,inactive: -1.78%,
COc1cc(Nc2c3c(nc4ccccc24)CCC3)cc(OC)c1OC,,active: 20 µM
N#Cc1ccccc1NC(=O)CSC1=Nc2ccccc2C2CC=NN12 (centres undefined),,active: 20 µM
CCn1c(C)cc(/C=C2\NC(=O)N(CC(=O)Nc3cccc(C)c3)C2=O)c1C,inactive: 4.16%,
Cc1cc(=O)oc2cc(OS(C)(=O)=O)ccc12,inactive: -1.66%,
COc1ccc(C2=Nn3c(nnc3-c3ccc(OC)cc3)SC2)cc1,,active: 6.51 µM
Clc1ccc(C2=Nn3c(nnc3-c3cc(-c4ccccc4)n[nH]3)SC2)cc1,,active: 5.17 µM
COC(=O)C1=C(C)N(Cc2ccccc2)C(=NCc2cc(OC)c(OC)c(OC)c2)N[C@H]1c1cccc(F)c1,inactive: -1.63%,
COc1ccc2cc(C(C)C(=O)O)ccc2c1 (centres undefined),inactive: 18.8%,
OCC[C@H]1C[C@@H](O)[C@H](O)[C@@]2(OCc3ccccc32)O1,inactive: -4.9%,
COc1ccc(/C=C2/CCc3ccccc3C2=O)cc1OC,inactive: -29%,
Cc1ccccc1/C=C/c1nc2ccccc2c(=O)n1Cc1ccccc1,inactive: 0.863%,
CC(/C=C/C1(O)C(C)CC(O)CC1(C)C)OC1OC(CO)C(O)C(O)C1O (centres undefined),inactive: 4.79%,
Cc1ccc(NC(=O)c2ccc(=O)n(CC(=O)Nc3ccccc3)n2)cc1,inactive: 2.4%,
C[C@H]1COC(=O)[C@@H](CC(=O)OC(C)(C)C)C/C=C\C[C@@H](CC(=O)N[C@H](CO)Cc2ccccc2)C(=O)N1,inactive: 0.673%,
CCOc1cccc(N2C(=O)CC(N(CCc3ccc(OC)c(OC)c3)C(=O)CC)C2=O)c1 (centres undefined),inactive: -2.15%,
O=C(N/C(=C\c1ccc(Br)cc1)C(=O)N1CCCC1)c1ccccc1F,inactive: -3.57%,
C[C@@H]1O[C@@H](OC[C@@H]2O[C@H](Oc3c(-c4ccc(O)cc4)oc4cc(O)cc(O)c4c3=O)[C@@H](O)[C@H](O)[C@H]2O)[C@H](O)[C@H](O)[C@H]1O,inactive: 4.34%,
CC(=O)N1CCC[C@H]1C(=O)O,inactive: 5.68%,
COc1ccc(C2CNC(=O)C2)cc1OC1CCCC1 (centres undefined),,inactive

Compound,"activity change, negative = inhibition",Potency
C#Cc1ccc([C@@H]2C=C(C(=O)N3CCN(Cc4ccc5c(c4)OCO5)CC3)O[C@H](OCC)[C@H]2CCCO)cc1,inactive: -1.64%,
Cc1cc(C)c[n+](-c2nc3ccccc3nc2C(=C=[N-])C#N)c1,inactive: 3.62%,
COc1cc(/C=N/NC(=O)NC2CCCCC2)ccc1O,,active: 12.6 µM
C/C(=N/NC(=O)COc1cc(C)ccc1C(C)C)C(=O)O,,active: 10 µM
COc1cccc(CNC(=O)Cn2ccc3cc(S(=O)(=O)N4CCCC4)ccc32)c1,inactive: 1.36%,
COc1ccccc1N(CC(=O)NCCSCc1ccc(Cl)cc1)S(C)(=O)=O,inactive: 1.46%,
CC[C@]12CCCN3CCc4c(n(c5ccccc45)[C@](O)(C(=O)OC)C1)[C@@H]32,inactive: -13.5%,
O=S1(=O)CC(O)C(Nc2ccc(Cl)cc2)C1 (centres undefined),inactive: 6.58%,
CCN1C(=O)/C(=C2\C=Cc3ccccc3N2CC)SC1=S,inactive: 10.7%,
CN1CCN(CCCN2c3ccccc3Sc3ccc(Cl)cc32)CC1,inactive: -10.1%,
O=C(C[C@H]1C/C=C\CC[C@H](Cc2ccc(F)cc2)C(=O)OC[C@@H]2CCCN2C1=O)N[C@H](CO)Cc1ccccc1,inactive: 1.81%,
S=c1[nH]c2cc3ccccc3cc2[nH]1,inactive: 0.119%,
CC(C(=O)N1CCN(c2ccccc2)CC1)N1C(=O)C2CC=CCC2C1=O (centres undefined),inactive: -8.89%,
Cn1c(SCC(=O)N/N=C/C=C\c2ccco2)nc2ccccc21,inactive: 0.545%,
C=CC[C@H](CC(=O)NCCO)C(=O)N[C@H](COC(=O)[C@H](CC=C)CC(=O)OC(C)(C)C)Cc1c[nH]c2ccccc12,inactive: -1.21%,
O=C1N[C@@H](Cc2ccccc2)COC(=O)[C@@H](Cc2ccc(F)cc2)CC/C=C/C[C@@H]1CC(=O)N(CCO)Cc1ccccc1,inactive: 2.14%,
CCOC(=O)c1cnc(Nc2nc3ccccc3o2)nc1CSC(=S)N(CC)CC,,active: 0.58 µM
C=CC[C@@H](CC(=O)NCCO)C(=O)NCCOC(=O)[C@@H](CC=C)Cc1ccc(F)cc1,inactive: -1.26%,
O=C(O)CCCn1cc(NC(=O)COc2ccccc2F)cn1,inactive: 2.19%,
CC[C@]1(c2ccccc2OC)C(=O)N(C(=O)OC)N1C(=O)OC,inactive: 5.24%,
O=C(NCC(c1ccco1)N1CCc2ccccc21)C(=O)Nc1ccc(F)cc1F (centres undefined),,active: 9.2 µM
CCO[C@@H]1OC(C(=O)Nc2ccccc2)=C[C@H](c2ccc(Br)cc2)[C@H]1CCCO,inactive: 6.29%,
NC(=O)C1CCN(c2nc(-c3ccccc3Br)cs2)CC1,inactive: -6.73%,

Compound,"activity change, negative = inhibition",Potency
CCOC(=O)C1=C(C)c2ccccc2N(C(=O)OC)C1(C)C(=O)OCC (centres undefined),,active: 18.4 µM
COc1ccc(NC(=O)/C(=C/c2cccs2)NC(=O)c2ccco2)cc1,inactive: 1.98%,
CCC(CC)C(=O)c1c[nH]c(C(=O)NN)c1,,active: 22.4 µM
O=C(NC1CC1)C1=C[C@@H](C2CCCCC2)C[C@@H](OCCCCO)O1,inactive: -6.16%,
CCOC(=O)[C@@H](CCc1ccccc1)N[C@H](C)C(=O)N1[C@H](C(=O)O)C[C@@H]2CCC[C@@H]21,inactive: 3.86%,
O=C(NC1CC1)C1=C[C@H](c2csc3ccccc23)C[C@H](OCCCCO)O1,inactive: -0.345%,
C[C@H]1CN([C@@H](C)CO)C(=O)c2cccc(NC(=O)C3CC3)c2O[C@H]1CN(C)C(=O)Nc1ccc2c(c1)OCO2,inactive: 1.77%,
O=C1NC[C@H](c2ccccc2)OC(=O)[C@H](Cc2ccc(F)cc2)C/C=C\C[C@H]1CC(=O)N(CCO)Cc1ccccc1,inactive: 4.74%,
CC(C)(C)[C@H]1C=C(C(=O)N2CCN(Cc3ccccc3)CC2)O[C@@H](OCc2ccc(CO)cc2)C1,inactive: 3.65%,
CCCCN(C(=O)Nc1ccc(OCC)cc1)C1CCN(C(C)=O)CC1,inactive: -8.72%,
CCC(C)Sc1ccc([C@@H]2[C@@H]3C(=O)N(CC)C(=O)[C@@H]3[C@]3(C(=O)OC)CCCCN23)cc1 (some centres undefined),inactive: 1.46%,
O=C1OC[C@H]2CCCN2C(=O)[C@@H](CC(=O)N(CCO)Cc2ccccc2)C/C=C\CC[C@H]1Cc1ccc(F)cc1,inactive: -4.89%,
CC(=O)C[C@@H](O)CC(=O)[C@H]1OC(=O)CCCCCc2ccccc21,inactive: 4.44%,
C[C@@]12C(=O)N(c3ccc(Cl)cc3)C(=O)N1[C@@H]1c3ccccc3OC[C@@H]1[C@H]2c1ccccc1,inactive: -2.28%,
C[C@@H]1COC(=O)[C@H](Cc2ccc(F)cc2)C/C=C\C[C@@H](CC(=O)NCCO)C(=O)N1,inactive: 0.24%,
O=C(C1=C[C@H](c2csc3ccccc23)C[C@H](OCCCCO)O1)N1CCN(Cc2ccc3c(c2)OCO3)CC1,inactive: -2.56%,
CC(C)(C)OC(=O)C[C@@H]1C/C=C\C[C@@H](CC(=O)N[C@H](CO)Cc2ccccc2)C(=O)N2CCC[C@H]2COC1=O,inactive: 1.41%,
COc1ccc2c3c1OC1CC(O)C=CC31CCN(C)C2 (centres undefined),inactive: -1.93%,
CN1C(=S)SC(/[N+]([O-])=C\c2ccc(Cl)cc2)C1(C)C (centres undefined),inactive: 0.399%,
OCC[C@@H]1C[C@H](O)[C@@H](O)[C@]2(CCc3ccccc3CO2)O1,inactive: -18.1%,

# From PubChem BioAssay AID493014 (National Center for Advancing Translational Sciences (NCATS), 2011)
